Results as given in the RNAGym collection of RNA variant scans (doi:10.1093/nar/gkz1192).
The source gives no read counts; variants with many changes may rest on few reads.

B1: CPEB3 Ribozyme (parent)
chain: UAACAGGGGGCCACAGCAGAAGCGUUCACGUCGCAGCCCCUGUCAGAUUCUGGUGAAUCUGCGAAUUCUGCUGUAUAUCUC

Variants of: B1
Test: self-cleavage, relative activity (ratio to wild type); higher = more cleavage; in vitro, sequencing
Procedure, shortened: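 For each CPEB3 ribozyme variant, relative activity is its cleaved/total read fraction divided by the unmutated ribozyme's. Barcoded error-prone PCR libraries were transcribed by T7 RNA polymerase (5 hours, 37°C) and held in DNase I for 15 min before an EDTA stop, with cleavage occurring throughout. Template-switching reverse transcription and Illumina sequencing were used to read the RNAs. A 5-read minimum applied, and results are the mean of three batches.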

Variant | self-cleavage
A13U A20G U26C U69C | 0.15
A13U A20G U31A C32U U49C U72C U74C | 0.03
A13U A20G U31A U49C A64G U69C | 0.05
A13U A20G U49C U67C | 0.25
A13U A20G U51A U69A | 0.44
A13U A20G U51A U69G U72A | 0.14
A13U A20G U51C A57G U60C C62U A65G | 0.23
A13U A20U A35G | 0.74
A13U A20U A35G U49C U54C | 0.16
A13U A20U A35U A56G U66C | 0.37
A13U A20U A35U U54A | 0.17
A13U A20U A45G U60C U66C U72C | 0.16
A13U A20U C23U U60C | 0.14
A13U A20U G22U A35G U49C | 0.17
A13U A20U G33A U51C | 0.04
A13U A20U U25C | 0.2
A13U A20U U25C G33U U41C U51A | 0.06
A13U A20U U41C G46A U49C | 0.14
A13U A20U U48C U76C A77G | 0.11
A13U A21C A35U | 0.12
A13U A21C U72C | 0.1
A13U A21G A28C C38G A65G | 0.07
A13U A21G A28G U72C | 0.2
A13U A21G A35G U43A U72C | 0.14

Variant | self-cleavage
A13U A21G A35G U78C | 1.19
A13U A21G A35U C59U U66C A75G | 0.13
A13U A21G A75G | 0.39
A13U A21G C23U U43C A56U U66C | 0.27
A13U A21G C29U U67C | 0.1
A13U A21G C38U C50G | 0.1
A13U A21G C40U U43A U67C | 0.05
A13U A21G G24C C40A | 0.04
A13U A21G G30A | 0.12
A13U A21G G36A U49C | 0.06
A13U A21G U26A A57G U72A U80C | 0.12
A13U A21G U26C | 0.21
A13U A21G U26C A47G A77U | 0.06
A13U A21G U26C U31C U60A U66C U69A | 0.04
A13U A21G U41A U43A | 0.18
A13U A21G U41A U48A A75G | 0.05
A13U A21G U43C | 0.18
A13U A21G U48C | 0.36
A13U A21G U48C U54A A56G A57U | 0.06
A13U A21G U51G | 0.49
A13U A21G U54C U67A | 0.09
A13U A21G U80C | 0.7
A13U A21U A28G U78C | 0.19
A13U A21U A57U | 0.21

Variant | self-cleavage
A13U A21U G33A U48A | 0.16
A13U A21U U25G C32A A57U U72C U80C | 0.2
A13U A21U U25G C32U U54C U78A U80C | 0.08
A13U A21U U43C U54A | 0.2
A13U A28C A45G U48C A64G | 0.07
A13U A28C A64G A77U | 0.55
A13U A28C C29G A45G A57G U69C | 0.05
A13U A28C G46A A57G U72C U78C | 0.03
A13U A28G A45C A64G U76C U80C | 0.18
A13U A28G A47G | 0.56
A13U A28G A64G U76C U80C | 0.84
A13U A28G C29U C62A | 0.14
A13U A28G G63U | 0.69
A13U A28G U48C | 0.25
A13U A28G U51C A56G | 0.37
A13U A28G U58A G70A G73U U78C | 0.11
A13U A28G U60C | 0.37
A13U A28G U69C U72C U74C U80C | 0
A13U A28G U72A | 0.37
A13U A28G U72C A77G | 0.74
A13U A28U A35G C79A | 1.29
A13U A28U A65G | 0.15
A13U A28U C29U | 0.23
A13U A28U U41C A57G U69A | 0.37

Variant | self-cleavage
A13U A28U U41C U49A | 0.66
A13U A28U U69C | 0.23
A13U A35G A64U | 1
A13U A35G A65G U72A | 0.96
A13U A35G C40U | 1.17
A13U A35G C62G G73C | 0.23
A13U A35G G63A | 1.23
A13U A35G U51A U54C U72C A75G | 1.31
A13U A35G U51A U58C | 1.25
A13U A35G U54G | 1.25
A13U A35G U60C U66A A77G | 0.66
A13U A35G U60C U80A | 1.11
A13U A35G U72C | 1.18
A13U A35U A45G A64G | 0.17
A13U A35U C50G | 0.54
A13U A35U U48C A64G | 0.11
A13U A35U U58C | 0.15
A13U A35U U60C A77U | 0.17
A13U A35U U67C | 0.12
A13U A35U U72C | 0.84
A13U A45C U51A U69G U72C | 0.1
A13U A45G A56U U58C A64G | 0.2
A13U A45G A57G | 0.4
A13U A45G A77G | 0.81

Variant | self-cleavage
A13U A45G U51C A56G G70A U74A U80C | 0.38
A13U A45G U58G | 0.05
A13U A45U A65G U78C U80A | 0.11
A13U A45U G55A A65G | 0.13
A13U A45U U48C U49A A64G | 0.07
A13U A45U U51A A57G | 0.12
A13U A45U U78C | 0.73
A13U A47C U60A | 0.08
A13U A47G A57G | 0.8
A13U A47G G73A | 1.29
A13U A47G U76A U80A | 1.24
A13U A47U A75U | 0.81
A13U A47U U80A | 1.07
A13U A56G A64G A77G | 0.9
A13U A56G A65C U69A | 0.15
A13U A56G C68A G73A U78C | 0.51
A13U A56G C71U | 0.53
A13U A56G U66C U72C A75U | 0.3
A13U A56U U67A A75G U76C | 0.32
A13U A57C C62G U80C | 0.43
A13U A57G U72A | 0.27
A13U A64G U67C U69A G70C U74A | 0.16
A13U A64G U67G | 0.23
A13U A64G U69G | 0.2

Variant | self-cleavage
A13U A64G U72A U74A | 0.66
A13U A64U U66C | 0.16
A13U A64U U67A | 0.19
A13U A64U U69C | 0.19
A13U A65G U67A U72A | 0.23
A13U A65U U74C | 0.45
A13U A75G U80C | 1.07
A13U A77G U78C | 1
A13U C14A A15C A21G U25C A64G | 0.02
A13U C14A A20G C27A C37U C38U U78C | 0.03
A13U C14A C17A A21G U78C | 0.05
A13U C14A C17A U78C | 0.65
A13U C14A U43C G61A U69C | 0.06
A13U C14G U26G U41C U54A A56U U69C | 0.04
A13U C14U A20G U58A U67C U72C U74C | 0.23
A13U C14U C17U U66C | 0.56
A13U C14U G16A U26A U72A | 0.16
A13U C17A U41C | 0.16
A13U C17U A28G U67C U76A | 0.08
A13U C17U A45C A64G | 0.06
A13U C23G C32A U41C | 0.22
A13U C23G U26C A35U A47G U60C A77G | 0.04
A13U C23U C71A | 0.06
A13U C23U U54G | 0.39

Variant | self-cleavage
A13U C27A A56U U74G U78A | 0.12
A13U C27A C34G C40U | 0.31
A13U C27A G46C U48C A64G | 0.15
A13U C27A U74G U78A | 0.17
A13U C27G A28G | 0.56
A13U C27U G33A | 0.13
A13U C27U U78A | 0.18
A13U C29G A65U | 0.23
A13U C29G U41A | 0.3
A13U C29U A56G A57G | 0.07
A13U C32A U41A A65G U72G | 0.07
A13U C32A U48A | 0.09
A13U C32A U67A U72C | 0.11
A13U C32G U76A | 0.19
A13U C32U A57G U74C | 0.63
A13U C34U A35G U80A | 1.17
A13U C34U G42U A45G U60C U66C U72C | 0
A13U C37A U72A U74A | 0.16
A13U C37U U54G U58A G63U | 0.05
A13U C38A U41A A75G | 0.13
A13U C38G U51C U54C U60A A75U U76C | 0.05
A13U C38U A45G U49C A77U | 0.2
A13U C38U U41A U43C | 0.05
